Laboratory results taken from the RNAGym collection of RNA variant scans (doi:10.7554/elife.90254).
Read counts are not given, so values of variants with three or more changes are uncertain.

B1: LINE1-mini (parent)
chain: GGCAGAGCUCAACACAGCGUGGCAAAGUGGCUGUGGCUAGACUGCC

Variants of: B1
Test: self-cleavage, relative activity (ratio to wild type); higher = more cleavage; in vitro, sequencing; the parent is a self-cleaving ribozyme
A25U U28A U32G showed a self-cleavage of 0.35.
In the case of A25G A26G C42A, the self-cleavage is reported as 0.03.
A25G C31U C46U showed a self-cleavage of 0.03.
Variant A25G C37G C42U has a self-cleavage of 0.01.
With A26C G33U U43C the self-cleavage was 0.
In the case of A24G C31U G33U U43G, the self-cleavage is reported as 0.43.
In the case of A25G G30U G33A G44C, the self-cleavage is reported as 0.
In the case of A25G A26U G27U C42G, the self-cleavage is reported as 0.2.
In the case of A24G U28A C37U, the self-cleavage is reported as 0.07.
With A25C C37U A39G the self-cleavage was 0.04.
Variant A24U U34C G36U U38C has a self-cleavage of 0.03.
A25U G27A U38A showed a self-cleavage of 0.17.
In the case of A24G G33U G35A G44U, the self-cleavage is reported as 0.04.
Variant A24U C31G A39U C42G G44U has a self-cleavage of 0.02.
In the case of A25C G29A G33U A41G, the self-cleavage is reported as 0.
A25C U32G C46A gave a self-cleavage of 0.18.
With A25C U38A G44U C46A the self-cleavage was 0.07.
With A26C U28C G33A C42A C46A the self-cleavage was 0.06.
Variant A24U A26G G29C G40C has a self-cleavage of 0.02.
With A26G C31A U32C C42G the self-cleavage was 0.01.
A25C G27A C37A C42G showed a self-cleavage of 0.01.
A24U A26G C42A G44U showed a self-cleavage of 0.07.
With A26G G29A U38A the self-cleavage was 0.21.
Work on A26G A39G G40A C42U yielded a self-cleavage of 0.03.
A24U G30U C42U showed a self-cleavage of 0.88.
Variant A26G G27U A39G has a self-cleavage of 0.04.
A25C G35U G36U gave a self-cleavage of 0.31.
A25C A39U A41G gave a self-cleavage of 0.33.
For A26G C31A A39G, the self-cleavage was 0.05.
In the case of A26C G27A A39C, the self-cleavage is reported as 1.57.
A25U G36A U38A C42G showed a self-cleavage of 0.03.
A25U G27U G40C showed a self-cleavage of 0.01.
Variant A25U A41G U43G has a self-cleavage of 0.04.
For A24G G29A G35C, the self-cleavage was 0.09.
In the case of A25C G36A C37U, the self-cleavage is reported as 0.01.
Work on A25U A26U G35U yielded a self-cleavage of 0.08.
Work on A24G G35U G40U yielded a self-cleavage of 0.12.
For A26C G29C G33C, the self-cleavage was 0.47.
A24G G27C A39C gave a self-cleavage of 0.36.
With A25U U28G G40A C42U the self-cleavage was 0.13.
A25G U28G A41U gave a self-cleavage of 0.11.
A26G C31G G33U C45A showed a self-cleavage of 0.09.
Variant A24U G44U C46U has a self-cleavage of 0.07.
Variant A26C G29A U34G G36A G44C has a self-cleavage of 0.5.
For A25C G27C G40C, the self-cleavage was 0.05.
Work on A25C G35U C46A yielded a self-cleavage of 0.04.
Work on A26C G27U G30U yielded a self-cleavage of 0.73.
A26G C31G G36A gave a self-cleavage of 0.04.
A25U G27A U32G gave a self-cleavage of 0.2.
With A25G G36A C46G the self-cleavage was 0.11.
For A24U C31A G44C, the self-cleavage was 0.08.
For A26G A41G C42U U43A, the self-cleavage was 0.07.
In the case of A24U A26G U34C, the self-cleavage is reported as 0.2.
A24G C42G G44U showed a self-cleavage of 0.02.
With A24G A39U A41G the self-cleavage was 0.2.
Work on A24U U34G C46G yielded a self-cleavage of 0.01.
A24U G27C G29A showed a self-cleavage of 1.77.
Variant A25C G35C G36U has a self-cleavage of 0.02.
Work on A26C G35U G40A yielded a self-cleavage of 0.05.
Work on A24U U28C U38C G44C yielded a self-cleavage of 0.23.
Variant A24U A25G U34A has a self-cleavage of 0.04.
In the case of A25U C31U C37A, the self-cleavage is reported as 0.11.
Variant A24G C31U A41U has a self-cleavage of 0.1.
Work on A25G U28A G29A U38C C42A G44A yielded a self-cleavage of 0.04.
Work on A26G C31A U38C yielded a self-cleavage of 0.03.
In the case of A25G A26U G44U, the self-cleavage is reported as 0.1.
A25U G27C G40C showed a self-cleavage of 0.12.
A25U G29U C45U showed a self-cleavage of 1.43.
For A25G G30U G40A, the self-cleavage was 0.05.
In the case of A26G C42U G44U, the self-cleavage is reported as 0.12.
A24U C31A G40C gave a self-cleavage of 0.07.
For A25U C37U A41C, the self-cleavage was 0.05.
For A25G G40U C42A, the self-cleavage was 0.
With A25C G35U A41U the self-cleavage was 0.14.
With A25G G30U C45A the self-cleavage was 0.03.
For A25G G29C G36A, the self-cleavage was 0.12.
A25C A41U C46G showed a self-cleavage of 0.37.
For A25C A41U C46U, the self-cleavage was 0.18.
Work on A25U U28C G40U yielded a self-cleavage of 0.31.
For A25C G30C C46A, the self-cleavage was 1.06.
A25G A26G G33U gave a self-cleavage of 0.18.
Work on A25U G27C C42U yielded a self-cleavage of 0.04.
In the case of A25G C31A C37U G40C, the self-cleavage is reported as 0.18.
